# Source: PubChem BioAssay AID720709 (National Center for Advancing Translational Sciences (NCATS), 2013)
# Hit rate of the full screen: of about 360,000 compounds, about 520 (0.14%) were called active. Inconclusive results, whose numbers are uncertain, are shown with a selection of clear calls. The call rests on the fitted dose curve; in most records, active means well fitted inhibition curve with a large enough effect; inconclusive means small, poorly fitted or top-dose-only effect; inactive means no such curve, though single readings can be large or run the other way. No potency is given beside an inconclusive call; the fits are too rough.
# Target: Rap guanine nucleotide exchange factor 3 (Homo sapiens) (UniProt O95398)
# Test: qHTS for Antagonist of cAMP-regulated guanine nucleotide exchange factor 3 (EPAC1): primary screen; further: nearly all actives have a fitted effect of over 50% in size
# Conditions: EPAC1 GEF assay, Rap1b-BODIPY-GDP exchange fluorescence; series mostly up to 115 µM
# Excerpt: In multi-cellular eukaryotic organisms, the effects of cAMP are transduced by two ubiquitously-expressed intracellular cAMP receptors, the classic protein kinase A/cAMP-dependent protein kinase (PKA/cAPK) and the more recently discovered exchange protein directly activated by cAMP/cAMP-regulated guanine nucleotide exchange factor (EPAC/cAMP-GEF). Both PKA and EPAC are ubiquitously expressed in all tissues, and an increase in intracellular cAMP levels will lead to the activation of both PKA and EPAC. Therefore, careful dissections of the individual role and relative contribution of EPAC and PKA within the overall cAMP signaling in various model systems are critical for further elucidating the mechanism of cAMP signaling. To date no EPAC-specific antagonists and agonist, as well as isoform-specific agonists have been reported, and developing EPAC-specific pharmacological probes to determine the physiological functions that EPAC play in the overall cAMP-mediated signaling remains a major challenge within the research field. Furthermore, identified regulators of EPAC may lead to new mechanism-based therapeutic strategies specifically targeting the EPAC / cAMP-signaling components as EPAC has been implicated to play important roles in major human pathological conditions such as diabetes, heart disease, and cancer. This qHTS will be used to screen the Molecular Libraries Small Molecule Repository (MLSMR) as a concentration-titration series using the NCGC unique quantitative screening (qHTS) platform to find inhibitors for EPAC1. In addition, this assay will also be used as a counterscreen for the EPAC2 qHTS. This fluorescent based assay is developed and validated for EPAC1 that measures exchange using EPAC effector Rap1 complex with BODIPY-GDP, a GDP analog with a tethered fluorophores. Inhibitors are identified by monitoring the change in fluorescence signal as the exchanged free BODIPY-GDP has a reduced fluorescence compared to Rap1-bound BODIPY-GDP. Decrease in signal (inhibition) is the desired outcome for the EPAC1 antagonist while no activity in this assay is desired for the EPAC2 antagonist counterscreen. de Rooij, J., Zwartkruis, F. J., Verheijen, M. H., Cool, R. H., Nijman, S. M., Wittinghofer, A., and Bos, J.L. (1998) Nature 396, 474-477 [2] Kawasaki, H., Springett, G. M., Mochizuki, N., Toki, S., Nakaya, M., Matsuda, M., Housman, D. E., and Graybiel, A. M. (1998) Science 282, 2275-2279 NIH Chemical Genomics Center [NCGC] NIH Molecular Libraries Probe Centers Network [MLPCN] MLPCN Grant: NS066510 Assay Submitter (PI): Xiaodong Cheng, The University of Texas, Medical Branch
# Briefly, three uL of reagents (100 nM EPAC1, 250 nM RAP1B-BODIPY-GDP, 50 uM GDP) were dispensed into a 1536-well Greiner black solid-bottom medium binding assay plate. Controls and test compounds (23 nL) were transferred to the plate via a Kalypsys pin tool equipped with a 1536-pin array. The plates were centrifuged at 1,000 rpm for 15 seconds followed by 5 minute incubation at room temperature. The assay plates were read at 5 minute intervals for 30 minutes in the ViewLux plate reader using 480nm excitation and 540nm emission filters. The results were normalized to the […] positive control ATA and DMSO.
# Potency means the concentration at half of the fitted maximal effect; tags describe the fitted curve by direction and shape.
# Chain of UniProt O95398 (O95398 whole entry, looked up): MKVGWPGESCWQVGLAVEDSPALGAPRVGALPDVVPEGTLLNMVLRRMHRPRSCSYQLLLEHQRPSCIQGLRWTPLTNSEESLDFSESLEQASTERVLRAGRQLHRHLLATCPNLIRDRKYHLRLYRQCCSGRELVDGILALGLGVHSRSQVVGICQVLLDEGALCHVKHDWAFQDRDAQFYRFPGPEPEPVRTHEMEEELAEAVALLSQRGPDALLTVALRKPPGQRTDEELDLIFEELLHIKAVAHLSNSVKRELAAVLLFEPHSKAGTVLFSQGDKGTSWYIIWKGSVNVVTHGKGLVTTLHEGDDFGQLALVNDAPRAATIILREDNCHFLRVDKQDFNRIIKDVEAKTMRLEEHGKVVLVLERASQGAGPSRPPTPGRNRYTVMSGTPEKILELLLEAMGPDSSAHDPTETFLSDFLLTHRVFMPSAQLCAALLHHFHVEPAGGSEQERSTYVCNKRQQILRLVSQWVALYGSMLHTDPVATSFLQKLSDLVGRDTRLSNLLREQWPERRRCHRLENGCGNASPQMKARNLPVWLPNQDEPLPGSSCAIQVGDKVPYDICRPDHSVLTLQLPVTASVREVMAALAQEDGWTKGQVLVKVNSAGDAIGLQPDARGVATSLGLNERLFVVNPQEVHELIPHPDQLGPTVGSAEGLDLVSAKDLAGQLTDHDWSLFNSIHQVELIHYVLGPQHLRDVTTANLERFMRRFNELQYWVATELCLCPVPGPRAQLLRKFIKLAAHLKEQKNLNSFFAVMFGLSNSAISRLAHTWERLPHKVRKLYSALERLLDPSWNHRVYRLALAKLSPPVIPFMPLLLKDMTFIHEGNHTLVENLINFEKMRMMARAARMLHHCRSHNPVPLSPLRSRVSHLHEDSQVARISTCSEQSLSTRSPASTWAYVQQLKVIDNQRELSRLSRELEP
row,Structure (SMILES),Potency
1,COc1ccc([N+](=O)[O-])cc1NC(=O)COC(=O)c1ccccc1C(=O)c1ccccc1,"inconclusive [inhibitor, full curve]"
2,Cc1ccc(/C=C2\C(=O)NC(=S)N(c3ccc(F)cc3)C2=O)o1,inactive
3,CCOc1cccc(N2C(=O)/C(=C/c3ccco3)C(=O)NC2=S)c1,"inconclusive [inhibitor, partial curve]"
4,O=C1NC(=O)C(=Cc2csc3ccccc23)C(=O)N1,inactive
5,CCCCn1c(NC(=O)c2ccco2)c(C(=O)OCC)c2nc3ccccc3nc21,"inconclusive [inhibitor, partial curve]"
6,CC(Oc1ccc(Cl)cc1Cl)C(=O)Nc1ccc(S(=O)(=O)Nc2cnc3ccccc3n2)cc1 (centres undefined),"inconclusive [inhibitor, single point]"
7,COc1ccc(CN2C(=O)NC(=O)/C(=C\c3ccco3)C2=O)cc1,active: 50.1 µM
8,CN(C)CC1Oc2ccccc2OC1(O)c1ccccc1 (centres undefined),"inconclusive [inhibitor, partial curve]"
9,COC(=O)C1=C(c2ccc(F)cc2OCc2ccccc2)C[C@@H]2CC[C@H]1N2C(=O)NCc1ccc(C)cc1,"inconclusive [inhibitor, single point]"
10,CCCNC1=C(C)C(=O)C2=C(C1=O)C(COC(N)=O)[C@]1(OC)C3NC3CN21 (some centres undefined),"inconclusive [inhibitor, single point]"
11,COC(=O)C1=C(c2ccc3ccccc3c2)C[C@@H]2CC[C@H]1N2C(=O)NCc1ccc(C(F)(F)F)cc1,"inconclusive [inhibitor, partial curve, poor fit]"
12,COc1ccccc1C=C1C(=O)NC(=S)NC1=O,inactive
13,COc1ccc(CN2C(=O)NC(=O)/C(=C/c3ccc([N+](=O)[O-])s3)C2=O)cc1,active: 39.8 µM
14,CC1Oc2cc3c(-c4c(O)cc(O)c5c(O)c6c(cc45)OC(C)C(C)C6=O)c(O)cc(O)c3c(O)c2C(=O)C1C (centres undefined),"inconclusive [inhibitor, partial curve]"
15,CC(C)OCCCNC(=O)c1c(N)n(CC2CCCO2)c2nc3ccccc3nc12 (centres undefined),"inconclusive [inhibitor, partial curve]"
16,CN(C)C(Cc1ccc(C#N)cc1)C(=O)c1ccccc1 (centres undefined),"inconclusive [inhibitor, single point]"
17,CCC(C)NC(=O)c1c(N)n(Cc2ccc3c(c2)OCO3)c2nc3ccccc3nc12 (centres undefined),"inconclusive [inhibitor, single point]"
18,O=c1nc(/C=C/c2ccc(Cl)cc2Cl)cc(C(F)(F)F)[nH]1,"inconclusive [inhibitor, full curve]"
19,O=[N+]([O-])c1cc(O)c(O)c([N+](=O)[O-])c1,"inconclusive [inhibitor, single point]"
20,CCN(Cc1ccccc1)C(=O)Cn1c(=O)oc2ccccc21,"inconclusive [inhibitor, single point]"
21,CCOP(=O)(C#Cc1ccccc1)C(O)c1ccc(Br)cc1 (centres undefined),"inconclusive [inhibitor, single point]"
22,C[C@H](CO)N1C[C@H](C)[C@H](CN(C)S(=O)(=O)c2ccccc2)Oc2ccc(NC(=O)NC3CCCCC3)cc2CC1=O,"inconclusive [inhibitor, single point]"

row,Structure (SMILES),Potency
1,CC(C)c1ccc(N2C(=O)NC(=O)/C(=C/c3cnc(-c4ccccc4)nc3)C2=O)cc1,inactive
2,COc1cc(C(=O)OC2C[C@H]3CC[C@@H](C2)N3)ccc1O (some centres undefined),inactive
3,Cc1ccc(N2C(=O)/C(=C/c3ccc(CN(CCC#N)S(C)(=O)=O)o3)C(=O)NC2=S)cc1,"inconclusive [inhibitor, partial curve, poor fit]"
4,O=C(NC1CCCCC1)C1CCN(C(=O)c2ccc(-c3ccccc3)cc2)CC1,"inconclusive [inhibitor, single point]"
5,C/C(=N\Nc1ccccc1)c1c(O)n(Cc2ccccc2)c(=O)[nH]c1=O,"inconclusive [inhibitor, partial curve]"
6,O=C(N/N=C/c1c(O)n(CCC2=CCCCC2)c(=O)[nH]c1=O)c1ccccc1,"inconclusive [inhibitor, partial curve]"
7,C/C(CC(c1ccccc1)c1c(O)c2ccccc2oc1=O)=N\Nc1ccc([N+](=O)[O-])cc1[N+](=O)[O-] (centres undefined),"inconclusive [inhibitor, partial curve]"
8,COC(=O)C1C(O)C(C)C(O)C(C)/C=C\C=C(/C)C(=O)Nc2c(C)c(OC(C)=O)c3c(c2O)C(=O)C(C)=C2OCOC(=C23)/C(C)=C/C(C)(O)C(O)C(C)C1O (centres undefined),inactive
9,CSc1nc(C)c(Br)c(N2CC2)n1,"inconclusive [inhibitor, single point]"
10,CCOC(=O)c1cn2nc(OP(=S)(OCC)OCC)cc2nc1C,"inconclusive [inhibitor, single point]"
11,O=C1NC(=O)N(CCC2=CCCCC2)C(=O)/C1=C/c1ccc(O)cc1,"inconclusive [inhibitor, single point]"
12,Cc1nn(Cc2ccccc2)c(C)c1C(=O)OCC(=O)Nc1cc(S(C)(=O)=O)ccc1Cl,"inconclusive [inhibitor, full curve, poor fit]"
13,O=C(O)CCn1cc(C=C2C(=O)NC(=O)NC2=O)c(-c2cc3ccccc3oc2=O)n1,"inconclusive [inhibitor, partial curve, poor fit]"
14,CC1=C(O)C(=O)C=C2C1=CC=C1C2(C)CCC2(C)C3CC(C)(C(=O)O)CCC3(C)CCC12C (centres undefined),"inconclusive [inhibitor, partial curve]"
15,COC(=O)C1=Nc2ccccc2/C1=C\c1c(O)n(-c2ccc(OC)cc2)c(=O)[nH]c1=O,inactive
16,Cc1ccc(-n2c(C)cc(/C=C3/C(=O)NC(=O)N(C)C3=O)c2C)cc1,inactive
17,Oc1c(Br)cc(-c2ccccc2)cc1Br,"inconclusive [inhibitor, partial curve]"
18,CN(C)c1ccc(/C=C/c2cc[n+](C)c3ccccc23)cc1,inactive
19,O=[N+]([O-])c1ccc(NCc2ccccc2)c2nonc12,inactive
20,COc1ccc(N2C(=O)/C(=C/c3cccs3)C(=O)NC2=S)cc1,inactive
21,COC(=O)c1c(NC(=O)C2CC=CCC2C(=O)O)sc2c1CCCCC2 (centres undefined),"inconclusive [inhibitor, full curve, poor fit]"
22,C=C1C(=O)O[C@@H]2C[C@@H](C)[C@@H]3C4OC4C(=O)[C@@]3(C)[C@@H](O)[C@H]12 (some centres undefined),"inconclusive [inhibitor, single point]"

row,Structure (SMILES),Potency
1,O=C(Nc1ccccc1)c1c(O)c2c(n(Cc3ccco3)c1=O)CCCC2,"inconclusive [inhibitor, single point]"
2,CCOc1cc2c(cc1OCC)-n1cccc1C(c1ccc(OC(F)F)cc1)NC2 (centres undefined),inactive
3,O=C1NC(=O)N(c2ccc(F)cc2)C(=O)/C1=C/c1ccsc1,inactive
4,O=C(O)CSCC(=O)N(Cc1ccccc1)c1nc(-c2ccccc2)c(-c2ccccc2)s1,"inconclusive [inhibitor, partial curve, poor fit]"
5,COC(C)(C)CCCC(C)C/C=C/C(C)=C/C(=O)OC(C)C (centres undefined),inactive
6,NC(=O)c1ccc(N=Cc2c(O)n(Cc3ccco3)c(=O)[nH]c2=O)cc1,"inconclusive [inhibitor, single point]"
7,CN(C)CCN(C(=O)COc1ccc(Cl)cc1)c1nc2cc3c(cc2s1)OCO3,"inconclusive [inhibitor, partial curve]"
8,COc1ccc(OC)c(N2C(=O)NC(=O)/C(=C/c3ccc([N+](=O)[O-])s3)C2=O)c1,"inconclusive [inhibitor, partial curve]"
9,CCOC(=O)c1c(N)n(CCCOC(=O)c2ccco2)c2nc3ccccc3nc12,inactive
10,CN1C(=O)NC(=O)C2(CCCC2)C1=O,inactive
11,COC(=O)C1=C(c2ccc(F)cc2F)C[C@@H]2CC[C@H]1N2C(=O)N1CCC(O)CC1,"inconclusive [inhibitor, single point]"
12,Cc1ccc(OP2(=O)Nc3cc(C)c(C)cc3S2)cc1 (centres undefined),inactive
13,Oc1ccc(Cl)cc1Sc1cc(Cl)ccc1O,"inconclusive [inhibitor, partial curve, poor fit]"
14,CCC(C)c1ccc(N2C(=O)NC(=O)/C(=C/c3cccn3CCOc3ccc(C)cc3)C2=O)cc1 (centres undefined),active: 44.7 µM
15,CC(C)CCn1c(=O)c(C(=O)Nc2ccccc2S(N)(=O)=O)c(O)c2ccccc21,"inconclusive [inhibitor, partial curve, poor fit]"
16,OC(c1cccc(Cl)c1)(c1cccc(Cl)c1)C1CN2CCC1CC2 (centres undefined),"inconclusive [inhibitor, partial curve]"
17,COc1cc(/C=C(/C)[N+](=O)[O-])ccc1OCc1ccccc1Cl,"inconclusive [inhibitor, full curve]"
18,C[C@@H]1CN([C@H](C)CO)C(=O)c2cc(NC(=O)Nc3ccc(C(F)(F)F)cc3)ccc2O[C@H]1CN(C)S(=O)(=O)c1cccs1,"inconclusive [inhibitor, single point]"
19,CN1C(=O)C(=Cc2ccc(N3CCCCCC3)o2)C(=O)N(C)C1=S,inactive
20,Cn1cccc1/C=C1/C(=O)NC(=O)N(Cc2ccccc2)C1=O,"inconclusive [inhibitor, single point]"
